± gives the standard deviation. The list shows a part of the results, in another mix than the full data.

The test system of the first assay is MIWI (PIWIL1) piRISC loaded with L1MC piRNA (30 nt). In words: pre-steady-state target cleavage rate (min^-1); MIWI and MILI are mouse PIWI proteins and EfPiwi is from a freshwater sponge; tags in brackets are library labels; higher = faster piRNA-guided slicing of the target. The note with it: guide: L1MC piRNA 5'p-UAACUAAAUACUAUGCAAGCUGUAGGUCCU; auxiliary factor: 500 nM mouse GTSF1. The method, then: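 Cleave-'n-Seq: a library of target RNAs (target site embedded in constant flanks, ACAGCATTCCGCGTTAGTGATATCCG... 5' flank; DNA-blocked outside the site) at 0.1 nM was incubated with 1 nM active mouse MILI or MIWI piRISC (synthetic 5'-monophosphorylated piRNA guide) with or without 500 nM mouse GTSF1 at 33 °C for 1 min to 16 h. Uncleaved targets were sequenced and normalised to non-target controls, and the pooled three trials were fitted to a burst-and-steady-state model to give the pre-steady-state cleavage rate (min^-1; k3 is constrained to at most 1e-4). Sequence is the target site only; target names encode pairing extent (gX:gY) and contiguous / 1-mismatch / 2-mismatch / bulge geometry. Fits with R² ≤ 0 are excluded.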
On to UCCUGGAUCACCUUGCAUAGUAUUAAGUUA, for which the “pre-steady-state target cleavage rate” value stood at 0.227 ± 0.047. Still for that read-out and setting: in the case of UCCACCUACAGCUUGCAUAGUAAUUUCAAA it was 0.269 ± 0.058.

In the case of UCCACCUACAGGUUGCAUAGUAUUUUGUUA, the “pre-steady-state target cleavage rate” value came to 0.894 ± 0.12. Still for that read-out and setting: in the case of UCCUCCUAGAGCUUGCAUACUAUUUAGUUA it was 0.407 ± 0.045; in that of UCCUCCUAGACCUUGCAUAGUAUUUAGUUA, 0.851 ± 0.042; in that of UCCACCUACAGCUAGCAUAGAAUUUAGUUA, 0.34 ± 0.033. Still for that read-out and setting: under UCCUGGUACAGCUUGCAUAGUAUUUAGUA stands 0.388 ± 0.04; under UCCUCCUACUCCUUGCAUAGUAUUUAGUUA, 1.27 ± 0.038.

As to UCCUGCUAGAGCUAGCAUAGUAUUUAGUUA, the “pre-steady-state target cleavage rate” value was determined as 0.589 ± 0.064. Same read-out and setting: under UCCUCCUACAGCUAGCAUAGUAUUUUGUUA stands 0.672 ± 0.034; under UCCUCCUACACGAUGCAUAGUAUUUUCAAA, 0.13 ± 0.032.

Regarding UCGACCUACAGCUUGCAUAGUAUCUUAGUUA, the “pre-steady-state target cleavage rate” value is 1.06 ± 0.049. Still for that read-out and setting: in the case of UCCUCCUACAGGUUGCAUAGUUUUUAGUUA it was 0.227 ± 0.017. UCCUGCUACAGCUUGCAUAGUAUAAACAAA: the “pre-steady-state target cleavage rate” value was 0.258 ± 0.046.

Consider UGGACCUAACAGCUUGCAUAGUAUUUAGUUA, for which the “pre-steady-state target cleavage rate” value was 1.33 ± 0.061.

Consider UCGACGUACAGGUUGCAUAGUAUUUAGUUA, for which the “pre-steady-state target cleavage rate” value is 1.21 ± 0.042. Turning to UCCUGCUACAGCAUGCAAAGUAUUUAGUUA, the “pre-steady-state target cleavage rate” value came to 0.865 ± 0.066. On the same count and under the same terms, under UCCUGGAACAGCUAGCUUAGUAUUUAGUUA stands 0.568 ± 0.034; under AGGACGUACAGCUUGCAUAGUAUUUAGUUA, 1.19 ± 0.048; under UCCUGCUACAGGUUGCAUAGUAUUUACAAA, 0.117 ± 0.028.

As to AGGACCUACAGCUUGCAUUGUAUAUAGUUA, the “pre-steady-state target cleavage rate” value was determined as 0.395 ± 0.031. As for AGGACGUACAGCUUGGAUAGUAUUUAGUUA, the “pre-steady-state target cleavage rate” value was found to be 1.36 ± 0.067.

The assay is the same for the next values; noted with them: guide: L1MC piRNA 5'p-UAACUAAAUACUAUGCAAGCUGUAGGUCCU; auxiliary factor: none (no GTSF1).
UCCUGGAUCACCUUGCAUAGUAUUAAGUUA: the “pre-steady-state target cleavage rate” value amounted to 0.00474 ± 0.0029. Still for that read-out and setting: in the case of UCCACCUACAGGUUGCAUAGUAUUUUGUUA it was 0.0198 ± 0.0029; in that of UCCUCCUAGAGCUUGCAUACUAUUUAGUUA, 0.0215 ± 0.0045. On the same count and under the same terms, in the case of UCCUCCUAGACCUUGCAUAGUAUUUAGUUA it was 0.0236 ± 0.0052; in that of UCCACCUACAGCUAGCAUAGAAUUUAGUUA, 0.00696 ± 0.0026; in that of UCCUGGUACAGCUUGCAUAGUAUUUAGUA, 0.0073 ± 0.002. Still for that read-out and setting: in the case of UCCUCCUACUCCUUGCAUAGUAUUUAGUUA it was 0.0448 ± 0.0077; in that of UCCUGCUAGAGCUAGCAUAGUAUUUAGUUA, 0.00801 ± 0.0027; in that of UCCUCCUACAGCUAGCAUAGUAUUUUGUUA, 0.00769 ± 0.0017. On to UCGACCUACAGCUUGCAUAGUAUCUUAGUUA, for which the “pre-steady-state target cleavage rate” value was 0.0281 ± 0.0081. Take UCCUCCUACAGGUUGCAUAGUUUUUAGUUA: the “pre-steady-state target cleavage rate” value worked out at 0.0159 ± 0.003. For UGGACCUAACAGCUUGCAUAGUAUUUAGUUA, the “pre-steady-state target cleavage rate” value came out at 0.0609 ± 0.01. The same measure, in the same setting: under UCGACGUACAGGUUGCAUAGUAUUUAGUUA stands 0.0425 ± 0.0075; under UCCUGCUACAGCAUGCAAAGUAUUUAGUUA, 0.0121 ± 0.003. Same read-out and setting: under UCCUGGAACAGCUAGCUUAGUAUUUAGUUA stands 0.0118 ± 0.0029; under AGGACGUACAGCUUGCAUAGUAUUUAGUUA, 0.0866 ± 0.014; under AGGACCUACAGCUUGCAUUGUAUAUAGUUA, 0.0219 ± 0.0046.

Take AGGACGUACAGCUUGGAUAGUAUUUAGUUA: the “pre-steady-state target cleavage rate” value is 0.0579 ± 0.0083.

These data come from the supplement of paper PMC10338343.
